# The source gives no read counts; variants with many changes may rest on few reads.
# B1: LINE1-mini (parent)
# chain: GGCAGAGCUCAACACAGCGUGGCAAAGUGGCUGUGGCUAGACUGCC
# Variants of: B1
# Assay: self-cleavage, relative activity (ratio to wild type); higher = more cleavage; in vitro, sequencing; the parent is a self-cleaving ribozyme
row,Variant,self-cleavage
1,C10U G19A U20G G22A A41U,0.06
2,C10G C31A C46A,0.04
3,C10G G29U U32C,0.03
4,C10A G21C U34A,0.02
5,C10U C18A G21U,0.49
6,C10G G29U C31U C46G,0.04
7,C10G G21C G29A,0.05
8,C10U A11G A41C,0.01
9,C10U G17A G30A,0.05
10,C10U C13A G22C,0.04
11,C10U C18U C23A A25G G27C,0.12
12,C10A G22U G30U C45G,0.01
13,C10G G27C C31A,0.02
14,C10G A12G A14G G17C,0.01
15,C10G C18G A24C C46A,0.02
16,C10U G36U A39G C42G,0
17,C10G C23U A25G G36A U38A A39C C42G,0.01
18,C10U C23A A39G,0.05
19,C10G C13U U20A C23A G36U U43C,0
20,C10G A24C G44A,0.02
21,C10U G19C A25G A26C A41G,0.05
22,C10A G22C A25U G35A,0.04
23,C10U A12C A16U,0.06
24,C10U G17C G19A G30A C37A C46G,0.02

row,Variant,self-cleavage
1,C10U A11C G19U,0.03
2,C10G G22C C46G,0.01
3,C10G A12G A26G G30U U34A C37U,0.01
4,C10G G22A G33C G35U C37A,0.02
5,C10G C23G C46G,0.03
6,C10U A25G A39G,0.13
7,C10G A41U G44U,0.05
8,C10A U38A G40U C42U C45U,0
9,C10U A26C G29C G36U,0.04
10,C10U C31A C37G,0.01
11,C10G G30A C46A,0.35
12,C10A G44U C45U,0.01
13,C10G G21A G29A,0.06
14,C10U G27U G33A U43G C46U,0.01
15,C10G C15U U43A,0.03
16,C10U C15U U20G C37G,0.04
17,C10U C13G A26C C37U,0.03
18,C10G C15U G19A,0.03
19,C10U C15G C45G,0.05
20,C10A G36U G44C,0.03
21,C10U G27U U34G C42U U43A,0.01
22,C10G G33U G36C U38C C46U,0.01
23,C10U G17U A26G G27C,0.02
24,C10G A16G G21A,0.21

row,Variant,self-cleavage
1,C10G A16G G21U,0.04
2,C10G A25U U34C,0.06
3,C10U A14C G22U C37A,0.06
4,C10A U28C G36U G40U,0
5,C10U A24U U32G G35C,0.08
6,C10U A16U A24C,0
7,C10G G36U C37U,0.03
8,C10U C31U A39U G40C,0.05
9,C10U A11U G21C G27U,0.03
10,C10G C18U G36U,0.02
11,C10G A16U G22A G27U U34A,0.02
12,C10A U20C A24G,0.03
13,C10U A12G C15A G35U,0
14,C10A G22U G27U C37U,0.02
15,C10U G30U G33U,0.04
16,C10G C18G G21U,0.08
17,C10U A16U A41U U43C,0.02
18,C10U G17A C37U C42G,0.07
19,C10A G29C A41G C46A,0
20,C10G A11U G35A G36A C37U C42U G44A,0
21,C10G C18G C37A C42A,0
22,C10G G22U C42A,0.02
23,C10A G21C A26U,0.13
24,C10A G19U G35A G36A C42G,0.02

row,Variant,self-cleavage
1,C10G G17A A24U G40A,0.03
2,C10G C15U G30U C37U,0
3,C10G A14C G17U G19U,0.01
4,C10G G30U G33U G36C G40U,0.01
5,C10A G35U C45A,0.01
6,C10U A14G G21C,0.14
7,C10G A14G A16G C18G U20C A26G G30U,0.01
8,C10G A24G G33U G36A,0.01
9,C10U C23A G29A C37G,0.01
10,C10U G22C G27U C37U A41U,0.01
11,C10G C15A C18U A26C C31A,0.04
12,C10G G22U A26U G29U G40C,0.01
13,C10U G17C A24G G27U U32G,0.01
14,C10G G36C C42U C45U,0.03
15,C10A G30C U32C G35U,0.02
16,C10G A16C G21U C46G,0.02
17,C10U A11G C23U G29C,0.01
18,C10G G22U G35A C37G U38G,0.01
19,C10A G19U G21U,0.11
20,C10G G22A A41U C45U,0.05
21,C10G C13A G44U,0.01
22,C10A U20A U38C,0.12
23,C10A G21A U32A U38C,0.01
24,C10G C18G G30A,0.15

row,Variant,self-cleavage
1,C10A G21C A41U,0.03
2,C10U A14G U32A C42U,0.01
3,C10G A24C C31U,0.05
4,C10G A16G C18A U28C C42U C46G,0
5,C10A U28G G36A,0.02
6,C10G C18A C23A A24C G35C C37U,0.03
7,C10U A14G U38A,0.02
8,C10U A16C G27U G29C G40U,0.02
9,C10G A16C G30U G40C C45U,0
10,C10U C15G G21C G27C G44C,0.01
11,C10A G21C G22C,0.01
12,C10G G21C G30C G36C U38G,0.01
13,C10U C23A A41C,0.02
14,C10U G40U A41C,0.06
15,C10G G19A G36C A41U,0.01
16,C10A U28C G29C,0
17,C10A U28C G29A,0.03
18,C10U A12U C15A G44U,0.03
19,C10G G29U C37A,0
20,C10U A11G C13G G17A G29U,0.02
21,C10U A12U G21C G30A,0.11
22,C10U G22A U32A G33C U38C U43G G44U,0.02
23,C10G A11G G44C C46U,0.01
24,C10A G19C U34A,0.01

row,Variant,self-cleavage
1,C10U A12U G17U C37A A39G,0.03
2,C10A G19C U20G G21A G35U G44U,0.01
3,C10G A26U A41G,0.01
4,C10A G36U C46A,0.06
5,C10A G21C U28C,0.03
6,C10U G33C G35A,0.01
7,C10U A11U A16U C46U,0.04
8,C10G G22A G40C,0.01
9,C10G G19C G44U C45G,0
10,C10A G29A G36A C42A G44U,0.01
11,C10A G30U G33U A39G,0
12,C10A U20G G21U C46G,0.06
13,C10G G17A A26G U34A C45U,0.01
14,C10U G33A U34C,0.02
15,C10A G19U C23U,0.03
16,C10G C15A C46U,0.05
17,C10G G33C A39U U43G,0.01
18,C10U G30A C37U,0.04
19,C10U G19A C31U A41G,0.03
20,C10G G22A A41G,0.01
21,C10U G33U U34C,0.04
22,C10A G33A U38C,0.01
23,C10A U20G A24U G44C,0.01
24,C10G U20A U34G,0.04

row,Variant,self-cleavage
1,C10A G22A A25C G44C,0
2,C10G A11U C18U A25U G29U A39U,0.02
3,C10G G30C C31A,0.13
4,C10G A16C C46A,0.02
5,C10U C18U G21A U34C,0.03
6,C10U A12C C42U,0.06
7,C10U G21C G29U U34G G36A C37U G40U,0.01
8,C10G A16C G27C C42A,0.01
9,C10G U28C G29U U34G,0.03
10,C10G C15U C45A,0.03
11,C10G G27C G29C,0.51
12,C10U G27A G33U A39U C46A,0.04
13,C10G A11G A12C G33C C45U,0.01
14,C10G C15A C18A G27U,0.02
15,C10U G36C G44C,0.03
16,C10G G17A C31G U34G,0.01
17,C10A U20A C31G G40A,0.03
18,C10U G30C G44U,0.15
19,C10A G30A A41U,0.02
20,C10A G33U C42U C45A C46A,0
21,C10G A26G U38G U43A,0
22,C10G A26G G30C,0.16
23,C10U C13G C18A U28C G33U,0.02
